T1: RBFOX1 RRM (Homo sapiens, UniProt Q9NWB1 109-208)
T1 sequence: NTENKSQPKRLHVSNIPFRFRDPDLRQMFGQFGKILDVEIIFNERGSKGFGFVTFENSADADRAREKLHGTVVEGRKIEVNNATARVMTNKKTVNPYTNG

B1: GGCAUAG (DNA:RNA)
RNA: GGGAGACCGGAAUUCAGAUUGUCCGGCAUAGUUAAAUCCCGUCGUAGCCACCA
DNA 1: CAATCTGAATTCCGGTCTCCC
DNA 2: TGGTGGCTACGACGGGATT
B2: GGACGAU (DNA:RNA)
RNA: B1 RNA with C27A, A28C, U29G, G31U
DNA 1: CAATCTGAATTCCGGTCTCCC
DNA 2: TGGTGGCTACGACGGGATT
B3: GUAUUGC (DNA:RNA)
RNA: B1 RNA with G26U, C27A, A28U, A30G, G31C
DNA 1: CAATCTGAATTCCGGTCTCCC
DNA 2: TGGTGGCTACGACGGGATT
B4: CGGUUAC (DNA:RNA)
RNA: B1 RNA with G25C, C27G, A28U, G31C
DNA 1: CAATCTGAATTCCGGTCTCCC
DNA 2: TGGTGGCTACGACGGGATT
B5: CUACCCU (DNA:RNA)
RNA: GGGAGACCGGAAUUCAGAUUGUCCCUACCCUUUAAAUCCCGUCGUAGCCACCA
DNA 1: CAATCTGAATTCCGGTCTCCC
DNA 2: TGGTGGCTACGACGGGATT
B6: AAUCUCA (DNA:RNA)
RNA: B5 RNA with C25A, U26A, A27U, C29U, U31A
DNA 1: CAATCTGAATTCCGGTCTCCC
DNA 2: TGGTGGCTACGACGGGATT
B7: GGAGACG (DNA:RNA)
RNA: B1 RNA with C27A, A28G, U29A, A30C
DNA 1: CAATCTGAATTCCGGTCTCCC
DNA 2: TGGTGGCTACGACGGGATT
B8: GGGCCGA (DNA:RNA)
RNA: B5 RNA with C25G, U26G, A27G, C30G, U31A
DNA 1: CAATCTGAATTCCGGTCTCCC
DNA 2: TGGTGGCTACGACGGGATT
B9: CAAGUAC (DNA:RNA)
RNA: B5 RNA with U26A, C28G, C29U, C30A, U31C
DNA 1: CAATCTGAATTCCGGTCTCCC
DNA 2: TGGTGGCTACGACGGGATT
B10: ACUAACG (DNA:RNA)
RNA: B1 RNA with G25A, G26C, C27U, U29A, A30C
DNA 1: CAATCTGAATTCCGGTCTCCC
DNA 2: TGGTGGCTACGACGGGATT
B11: UCUGACU (DNA:RNA)
RNA: B5 RNA with C25U, U26C, A27U, C28G, C29A
DNA 1: CAATCTGAATTCCGGTCTCCC
DNA 2: TGGTGGCTACGACGGGATT
B12: CUCGGGC (DNA:RNA)
RNA: B5 RNA with A27C, C28G, C29G, C30G, U31C
DNA 1: CAATCTGAATTCCGGTCTCCC
DNA 2: TGGTGGCTACGACGGGATT
B13: CAAUAAC (DNA:RNA)
RNA: B5 RNA with U26A, C28U, C29A, C30A, U31C
DNA 1: CAATCTGAATTCCGGTCTCCC
DNA 2: TGGTGGCTACGACGGGATT
B14: CCUAUUG (DNA:RNA)
RNA: B1 RNA with G25C, G26C, C27U, A30U
DNA 1: CAATCTGAATTCCGGTCTCCC
DNA 2: TGGTGGCTACGACGGGATT
B15: UCUAAGU (DNA:RNA)
RNA: B5 RNA with C25U, U26C, A27U, C28A, C29A, C30G
DNA 1: CAATCTGAATTCCGGTCTCCC
DNA 2: TGGTGGCTACGACGGGATT
B16: UAGAUUA (DNA:RNA)
RNA: B1 RNA with G25U, G26A, C27G, A30U, G31A
DNA 1: CAATCTGAATTCCGGTCTCCC
DNA 2: TGGTGGCTACGACGGGATT
B17: CUACAAC (DNA:RNA)
RNA: B5 RNA with C29A, C30A, U31C
DNA 1: CAATCTGAATTCCGGTCTCCC
DNA 2: TGGTGGCTACGACGGGATT
B18: UCUCUCU (DNA:RNA)
RNA: B5 RNA with C25U, U26C, A27U, C29U
DNA 1: CAATCTGAATTCCGGTCTCCC
DNA 2: TGGTGGCTACGACGGGATT
B19: UGGCUAG (DNA:RNA)
RNA: B1 RNA with G25U, C27G, A28C
DNA 1: CAATCTGAATTCCGGTCTCCC
DNA 2: TGGTGGCTACGACGGGATT
B20: GCAGACG (DNA:RNA)
RNA: B5 RNA with C25G, U26C, C28G, C29A, U31G
DNA 1: CAATCTGAATTCCGGTCTCCC
DNA 2: TGGTGGCTACGACGGGATT
B21: AAUUCCA (DNA:RNA)
RNA: B5 RNA with C25A, U26A, A27U, C28U, U31A
DNA 1: CAATCTGAATTCCGGTCTCCC
DNA 2: TGGTGGCTACGACGGGATT
B22: ACCGCGA (DNA:RNA)
RNA: B5 RNA with C25A, U26C, A27C, C28G, C30G, U31A
DNA 1: CAATCTGAATTCCGGTCTCCC
DNA 2: TGGTGGCTACGACGGGATT
B23: UUUGUAA (DNA:RNA)
RNA: B1 RNA with G25U, G26U, C27U, A28G, G31A
DNA 1: CAATCTGAATTCCGGTCTCCC
DNA 2: TGGTGGCTACGACGGGATT
B24: CGUGUCA (DNA:RNA)
RNA: B5 RNA with U26G, A27U, C28G, C29U, U31A
DNA 1: CAATCTGAATTCCGGTCTCCC
DNA 2: TGGTGGCTACGACGGGATT
B25: AGAAUGU (DNA:RNA)
RNA: B1 RNA with G25A, C27A, A30G, G31U
DNA 1: CAATCTGAATTCCGGTCTCCC
DNA 2: TGGTGGCTACGACGGGATT
B26: GUUGCAU (DNA:RNA)
RNA: B5 RNA with C25G, A27U, C28G, C30A
DNA 1: CAATCTGAATTCCGGTCTCCC
DNA 2: TGGTGGCTACGACGGGATT
B27: AGCCGUA (DNA:RNA)
RNA: B1 RNA with G25A, A28C, U29G, A30U, G31A
DNA 1: CAATCTGAATTCCGGTCTCCC
DNA 2: TGGTGGCTACGACGGGATT
B28: UUUUUAG (DNA:RNA)
RNA: B1 RNA with G25U, G26U, C27U, A28U
DNA 1: CAATCTGAATTCCGGTCTCCC
DNA 2: TGGTGGCTACGACGGGATT
B29: GAACUGC (DNA:RNA)
RNA: B5 RNA with C25G, U26A, C29U, C30G, U31C
DNA 1: CAATCTGAATTCCGGTCTCCC
DNA 2: TGGTGGCTACGACGGGATT
B30: AUCGUGC (DNA:RNA)
RNA: B1 RNA with G25A, G26U, A28G, A30G, G31C
DNA 1: CAATCTGAATTCCGGTCTCCC
DNA 2: TGGTGGCTACGACGGGATT
B31: AUGCCUC (DNA:RNA)
RNA: B5 RNA with C25A, A27G, C30U, U31C
DNA 1: CAATCTGAATTCCGGTCTCCC
DNA 2: TGGTGGCTACGACGGGATT

Substitutions are numbered along the chain they refer to; changes in the protein carry UniProt numbers. Some of the results follow.

The target in this test is T1, RBFOX1 RRM. The experiment in a line: EMSA; HiTS-Eq, 1 nM pool, 10 min; buffer printed only for the single-RNA assays: 10 mM Tris pH 7.5, 150 mM NaCl, 3.4 mM EDTA, 0.001% NP-40, 30 C. Particulars: tags: His6 N-terminal (pET28a); label: 5' 32P. The method, boiled down: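 Purified RbFox RRM (wild type or mutant) was equilibrated for 10 min in 50 µL with 1 nM of a 5′-radiolabelled pool of RNA with 7 randomized nucleotides, its flanks annealed to DNA oligonucleotides, across increasing protein concentrations. Free RNA was separated by 8% native PAGE, excised, reverse-transcribed, PCR-barcoded and sequenced on an Illumina HiSeq 2500. Relative association constants came from read-count changes of each variant against the control reaction, normalised to the cognate motif.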
(In general: A gel shift assay detects complexes by their altered migration in electrophoresis.)
In the case of B1, the binding signal is 0.0112 KA relative to UGCAUGU.
The result for B2 reads 0.02 KA relative to UGCAUGU; that for B3, 0.0151 KA relative to UGCAUGU.
As to B4, the binding signal is 0.0112 KA relative to UGCAUGU.
The result for B5 reads 0.00216 KA relative to UGCAUGU; that for B6, 0.00445 KA relative to UGCAUGU; that for B7, 0.0165 KA relative to UGCAUGU.
B8: the binding signal is 0.0168 KA relative to UGCAUGU.
The result for B9 reads 0.0023 KA relative to UGCAUGU; that for B10, 0.00263 KA relative to UGCAUGU.
The result for B11 reads 0.00965 KA relative to UGCAUGU; that for B12, 0.00316 KA relative to UGCAUGU; that for B13, 0.00247 KA relative to UGCAUGU.
The result for B14 reads 0.00577 KA relative to UGCAUGU.
B15: the binding signal is 0.00842 KA relative to UGCAUGU.
The result for B16 reads 0.00551 KA relative to UGCAUGU; that for B17, 0.000329 KA relative to UGCAUGU; that for B18, 0.00409 KA relative to UGCAUGU.
Turning to B19, the binding signal was 0.0286 KA relative to UGCAUGU.
As for B20, the binding signal was 0.00979 KA relative to UGCAUGU.
The result for B21 reads 0.00102 KA relative to UGCAUGU; that for B22, 0.00595 KA relative to UGCAUGU.
The result for B23 reads 0.0114 KA relative to UGCAUGU.
As to B24, the binding signal was 0.00921 KA relative to UGCAUGU.
On to B25, for which the binding signal was 0.0214 KA relative to UGCAUGU.
Consider B26, for which the binding signal was 0.0231 KA relative to UGCAUGU.
The result for B27 reads 0.00251 KA relative to UGCAUGU.
The figure for B28 is 0.0201 KA relative to UGCAUGU.
The figure for B29 is 0.0144 KA relative to UGCAUGU; for B30 it is 0.012 KA relative to UGCAUGU.
Turning to B31, the binding signal was 0.0104 KA relative to UGCAUGU.

Values taken from article PMC9911399, “Two distinct binding modes provide the RNA-binding protein RbFox with extraordinary sequence specificity”.
